In PubChem BioAssay AID2147 (National Center for Advancing Translational Sciences (NCATS), 2009):
The whole screen tested about 230,000 compounds, of which about 3,600 (1.6%) were called active. Inconclusive means that the source gave no clear call. Such entries were picked first, then a sample of the others. Calls follow the shape of the dose curve; as a rule, active = well fitted inhibition curve with a large enough effect (not every such curve was filed as active); inconclusive = small, poorly fitted or top-dose-only effect, or another doubt; inactive = no such curve, though single readings can be large or run the other way. Potencies beside an inconclusive call are fits to weak or partial responses and may not hold up. Some structures have more than one record in an assay (separate samples or runs), and their calls can disagree.

biological target: Lysine-specific demethylase 4E (Homo sapiens) (UniProt B2RXH2); assay: qHTS Assay for Inhibitors of Human Jumonji Domain Containing 2E (JMJD2E); settings: JMJD2E catalytic domain, FDH-coupled NADH fluorescence (FDH is formaldehyde dehydrogenase); series mostly up to 57.1 µM
Chain of UniProt B2RXH2 (B2RXH2 whole entry, looked up, the tested form may be a part): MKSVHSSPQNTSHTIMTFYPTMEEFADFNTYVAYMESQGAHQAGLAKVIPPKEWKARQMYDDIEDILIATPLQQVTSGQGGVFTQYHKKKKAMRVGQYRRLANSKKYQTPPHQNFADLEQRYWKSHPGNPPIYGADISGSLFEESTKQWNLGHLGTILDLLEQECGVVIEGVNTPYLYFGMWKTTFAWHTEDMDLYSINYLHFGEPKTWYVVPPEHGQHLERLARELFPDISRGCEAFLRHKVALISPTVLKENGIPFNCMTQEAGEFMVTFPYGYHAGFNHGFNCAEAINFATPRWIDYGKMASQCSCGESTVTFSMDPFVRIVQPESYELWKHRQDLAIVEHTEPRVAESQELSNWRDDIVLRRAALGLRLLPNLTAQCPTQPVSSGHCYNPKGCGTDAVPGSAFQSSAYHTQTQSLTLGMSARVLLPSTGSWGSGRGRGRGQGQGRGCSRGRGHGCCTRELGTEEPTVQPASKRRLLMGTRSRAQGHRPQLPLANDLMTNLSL
Also: nearly all actives have a fitted effect of over 50% in size.
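For activity change, negative = inhibition in this document: 0% = wells with enzyme and -100% = buffer wells without enzyme.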
Potency is read from the fitted curve at half-maximal effect; tags tell the direction and shape of the fitted curve.

Row | SMILES | Potency | activity change, negative = inhibition
1 | O=C(Nc1ccc2c(c1)CCC2)c1cccc(S(=O)(=O)N2CCN(c3ccc(F)cc3)CC2)c1 | inconclusive: 39.8 µM [inhibitor, single point] | 
2 | COc1ccc(C2Nc3ccccc3C(=O)N2c2ccc(C)cc2)cc1Cn1nnc2ccccc21 (stereo not drawn) | inactive | 
3 | N#Cc1ccc(/C=C/C(=O)c2ccco2)cc1 | inactive | 
4 | CCn1c(CNc2ccc(C)cc2)nnc1SCC(=O)NCc1ccccc1 | inactive | 
5 | COc1cc(NC(=S)NC(=O)c2ccc(C(C)(C)C)cc2)ccc1NC(=O)c1cccs1 | inactive | 
6 | Oc1cccc(Oc2ncc(C(F)(F)F)cc2Cl)c1 | inactive | 
7 | O=c1n(-c2ccccc2)c(=O)n2n1CC(O)C2 | inactive | 
8 | CN(CCc1ccccn1)S(=O)(=O)c1ccc(F)cc1 | inconclusive: 28.2 µM [inhibitor, single point] | 
9 | O=[N+]([O-])c1ccc(Oc2cccc3cccnc23)c([N+](=O)[O-])c1 | inactive | 
10 | CCN(CC)S(=O)(=O)c1ccc(Cl)c(NC(=O)COC(=O)c2ccc(O)cc2)c1 | inactive | 
11 | COc1ccccc1-c1cc(C(F)(F)F)nc(S(=O)(=O)CCCC(=O)N2CCCCC2C)n1 (stereo not drawn) | inconclusive: 28.2 µM [inhibitor, single point] | 
12 | Cc1ccnc(N2CCCC(C(=O)Nc3nnc(C)s3)C2)n1 (stereo not drawn) | inconclusive: 25.1 µM [inhibitor, single point] | 
13 | COc1cc(OC)cc(C(=O)NNC(=O)c2cc3c(s2)CCCC3)c1 | inconclusive: 28.2 µM [inhibitor, single point] | 
14 | CCCCCCCC/C=C\CCCCCCCC(=O)OC[C@@H](O)COP(=O)(O)O | inactive | 
15 | O=C(NC1=NCCS1)c1ccc(-c2ccc(Cl)cc2)o1 | inconclusive: 28.2 µM [inhibitor, partial curve] | 
16 | Cc1nnc(SCCCN2C(=O)c3ccccc3C2=O)o1 | inactive | 
17 | COc1cccc(CNc2cnc3ccccc3c2)c1O | inconclusive: 31.6 µM [inhibitor, partial curve] | 
18 | COCC[N+]1(C)CCCCC1 | inconclusive: 39.8 µM [inhibitor, single point] | 
19 | CCOc1ccc2[nH]c(=O)c(CN(CCCN3CCOCC3)Cc3nnnn3Cc3ccc(OC)cc3)cc2c1 | inconclusive: 28.2 µM [inhibitor, partial curve] | 
20 | CN(C)S(=O)(=O)c1ccc(C(=O)Nc2nnc(SCc3cccc4ccccc34)s2)cc1 | inconclusive: 25.1 µM [inhibitor, partial curve] | 
21 | COC(=O)c1ccccc1NC(=O)C12CCC(C)(C(=O)O1)C2(C)C (stereo not drawn) | inconclusive: 28.2 µM [inhibitor, single point] | 
22 | Cc1ccc(-c2nc3c(=O)n(C)c4ccccc4c3o2)cc1 | inconclusive: 7.08 µM [inhibitor, partial curve] | 
23 | Cc1ccc(N2C(=O)[C@@H]3[C@H](C2=O)C2CCCN2[C@@H]3C(=O)c2ccccc2)cc1 (stereo partly drawn) | inconclusive: 22.4 µM [inhibitor, single point] | 
24 | COc1ccccc1OCC(=O)Nc1ccc(O)cc1C(=O)O | inconclusive: 28.2 µM [inhibitor, single point] | 

Row | SMILES | Potency | activity change, negative = inhibition
25 | COc1ccc(NC(=O)CN2C(=O)c3cccc4cccc2c34)c(OC)c1 | inconclusive: 39.8 µM [inhibitor, single point] | 
26 | CC(=O)c1cc(C(=O)Nc2ccccc2C(=O)O)oc1C | inactive | 
27 | COc1cc(C)ccc1OCCON1C(=O)CCC1=O | inconclusive: 28.2 µM [inhibitor, partial curve] | 
28 | CC1(C)CC(=O)c2cc(OCC(=O)NCc3cccnc3)ccc2O1 | inconclusive: 31.6 µM [inhibitor, partial curve] | 
29 | CCN(CC)C(=O)C1CCCN(Cc2ccc3c(c2)OCO3)C1 (stereo not drawn) | inconclusive: 28.2 µM [inhibitor, single point] | 
30 | Nc1c(-c2ccccc2Cl)cnn1-c1cccc([N+](=O)[O-])c1 | inactive | 
31 | Cc1nc(SCC(=O)O)n[nH]1 | inactive | 
32 | Cc1nc(C(=O)Nc2ccc(Cl)cc2)sc1C1(C)CC(c2ccccc2)=NO1 (stereo not drawn) | inconclusive: 28.2 µM [inhibitor, single point] | 
33 | O=C(CN1C(=O)S/C(=C\C=C\c2ccccc2)C1=O)N1CCOCC1 | inactive | 
34 | C=C1CSc2nc3ccccc3c(=O)n21 | inconclusive: 35.5 µM [inhibitor, partial curve] | 
35 | CCN(C(=O)c1cnc(NC(C)C)cc1C(F)(F)F)c1ccc(Cl)cc1 | inconclusive: 22.4 µM [inhibitor, partial curve] | 
36 | CCOc1ccc2nc(COC(=O)c3ccncc3)c(C(=O)c3ccccc3)[n+]([O-])c2c1 | inconclusive: 10 µM [inhibitor, partial curve, poor fit] | 
37 | O=C(CNCc1cccc2ccccc12)Nc1ccccc1[N+](=O)[O-] | inactive | 
38 | Cc1cccc(C(=O)Nc2nnc(-c3cccnc3)o2)c1 | inconclusive: 39.8 µM [inhibitor, single point] | 
39 | N/C(=N\OC(=O)/C=C/c1ccccc1)c1ccncc1 | inactive | 
40 | Cc1ccc(-n2c(-c3ccco3)nc3nc4ccccc4nc32)cc1F | inconclusive: 2.82 µM [inhibitor, full curve] | 
41 | N#CC(C#N)=C(N)/C(C#N)=C/c1ccc(O)cc1 | inactive | 
42 | Cc1cc(C)cc(C(=O)N2CCN(c3ccccn3)CC2)c1 | inconclusive: 31.6 µM [inhibitor, single point] | 
43 | O=C(NCCCN1CCOCC1)c1cc2ccccc2oc1=O | inconclusive: 31.6 µM [inhibitor, single point] | 
44 | c1ccc2sc(Sc3ncnc4sccc34)nc2c1 | inconclusive: 39.8 µM [inhibitor, single point] | 
45 | Cc1ccc2c(c1)c(C)c(C)n2CC(O)Cn1nc(C)cc1C (stereo not drawn) | inconclusive: 39.8 µM [inhibitor, single point] | 
46 | O=S(=O)(c1ccc(N2CC=C(c3ccccc3)CC2)nc1)N1CCCC1 | inconclusive: 39.8 µM [inhibitor, single point] | 
47 | CCC1(CC)Cc2ccccc2-c2nc(NCCCO)[nH]c(=O)c21 | inconclusive: 28.2 µM [inhibitor, partial curve] | 
48 | COC(=O)C1=C(O)/C(=C\c2cc(C)n(-c3ccccc3F)c2C)N=C1C | active: 22.4 µM | 

Row | SMILES | Potency | activity change, negative = inhibition
49 | O=C(O)/C=C/C(=O)NCc1ccccn1 | inconclusive: 28.2 µM [inhibitor, single point] | 
50 | CCOC(=O)C1=C(C)N=C2SC(C)C(=O)N2C1c1ccc(OC(C)=O)c(OC)c1 (stereo not drawn) | inactive | 
51 | COc1cc(CNc2ccc(N3CCOCC3)c(C(=O)O)c2)ccc1OCC(N)=O | inconclusive: 25.1 µM [inhibitor, single point] | 
52 | COC(=O)c1c(NC(=O)COC(=O)[C@@H](NS(=O)(=O)c2ccccc2)C(C)C)sc2c1CCC2 | inconclusive: 35.5 µM [inhibitor, single point] | 
53 | CN(NC(=O)CN1C(=O)c2ccccc2C1=O)C1=NS(=O)(=O)c2ccccc21 | inactive | 
54 | COc1ccc2cc(CCNC(=O)C3CC3)c(=O)[nH]c2c1 | inconclusive: 25.1 µM [inhibitor, partial curve] | 
55 | COc1ccc2oc(=O)c(/C(C)=N/NC(=O)c3ccncc3)cc2c1 | inconclusive: 7.08 µM [inhibitor, full curve] | 
56 | COc1ccc(C(=O)Nc2ccc(S(=O)(=O)NC(C)=O)cc2)cc1[N+](=O)[O-] | inactive | 
57 | O=C(NCCCn1ccnc1)C(=O)NCC1OCCCN1S(=O)(=O)c1ccccc1 (stereo not drawn) | inactive | 
58 | COc1ccc(CCn2c(SCC(=O)Nc3cc(C)on3)nc3ccccc3c2=O)cc1OC | inactive | 
59 | CCCCN1C(=O)/C(=C/C=C2\SCCN2C)SC1=S | inactive | 
60 | COC(=O)c1cnc2c(c1C(=O)OC)c(=O)n(C)c(=O)n2C | inconclusive: 31.6 µM [inhibitor, partial curve] | 
61 | CCOC(=O)/C(C#N)=C/C1=C(N2CCOCC2)C(C)(C)OCC1 | inconclusive: 35.5 µM [inhibitor, single point] | 
62 | COc1ccc(OCC(=O)c2c(O)c3ccccc3oc2=O)cc1 | inconclusive: 28.2 µM [inhibitor, single point] | 
63 | COC/C=C/C1=CC2=CC(=O)C(C)(OC(=O)c3cnc4ccccc4n3)C(=O)C2=CN1CCCCO (stereo not drawn) | active: 8.91 µM | inactive: -28.2% [at 11.4 µM]
64 | CC(C)C1C(C#N)=C(N)SC(N)=C1C#N | inconclusive: 39.8 µM [inhibitor, single point] | 
65 | COc1cc(NC(C)C(=O)N2CC(C)OC(C)C2)cc(OC)c1 (stereo not drawn) | inconclusive: 39.8 µM [inhibitor, single point] | 
66 | Cc1ccc2nc(SCC(=O)NCC3CCCO3)c(C#N)cc2c1 (stereo not drawn) | inconclusive: 39.8 µM [inhibitor, single point] | 
67 | O=C(O)/C=C\C(=O)Nc1ccccc1C(=O)NC1CCCCC1 | inconclusive: 31.6 µM [inhibitor, partial curve] | 
68 | O=C(CCl)Nc1cn(-c2ccccc2)nc1-c1ccccc1 | inconclusive: 35.5 µM [inhibitor, partial curve] | 
69 | COc1ccccc1C1C=C(c2ccc(Cl)cc2)Nc2nc(NS(C)(=O)=O)nn21 (stereo not drawn) | inconclusive: 28.2 µM [inhibitor, partial curve] | 
70 | O=C(NCc1ccccc1)Nc1cccc2ccccc12 | inconclusive: 35.5 µM [inhibitor, single point] | 
71 | O=C(CCl)c1ccc2c(c1)CCN2C(=O)C1CCCCC1 | inconclusive: 35.5 µM [inhibitor, single point] | 
72 | C=CCn1c(=NC(=O)CN2C(=O)CCC2=O)sc2cccc(OC)c21 | inconclusive: 25.1 µM [inhibitor, single point] | 
